{"source": "PubChem BioAssay AID1345083", "about": "(National Center for Advancing Translational Sciences (NCATS), 2018)", "note": "The campaign covered roughly 94,000 compounds. About 6,200 (6.6%) were called active. Inconclusive means that the source gave no clear call. Such entries were picked first, then a sample of the others. Calls follow the shape of the dose curve; as a rule, active = well fitted inhibition curve with a large enough effect; inconclusive = small, poorly fitted or top-dose-only effect; inactive = flat fitted curve, though single readings scatter. Potencies beside an inconclusive call are fits to weak or partial responses and may not hold up. % is scaled to controls: 0 for no effect and ±100 for the full control effect; potency is read from the fitted curve at half-maximal effect; tags tell the direction and shape of the fitted curve.", "data": [{"assay": "Cytotoxic Profiling in HEK 293 Cell Line of Diverse Libraries Using Quantitative High-Throughput Screening; also: nearly all actives have a fitted effect of over 60% in size", "details": "HEK 293 viability, ATP luminescence (CellTiter-Glo), 48-72 h; activity change, negative = cytotoxicity: at 115 µM (top of the series) unless noted; series mostly up to 115 µM", "summary_of_the_method": "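ATP-coupled CellTiter-Glo luminescence served as viability read-out, recorded 10 min after reagent addition at room temperature. HEK 293 cells, 250 cells/well, had been incubated with pintool-transferred compound for 48 or 72 hr at 37 degree Celsius.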", "values": [{"smiles": "COc1ncccc1CN1CCC2(CC1)OC(=O)N(Cc1ccc(O)cc1)C2(C)c1ccccc1", "note": "(centres undefined)", "Potency": "inconclusive: 79.4 µM [inhibitor, partial curve, poor fit]"}, {"smiles": "CNC(=O)c1cc(C)nc2onc(C3CCCN(C(=O)c4ccncc4)C3)c12", "note": "(centres undefined)", "activity change, negative = cytotoxicity": "inactive: -13.8%"}, {"smiles": "CN1CCNc2nc(COc3ccc(Oc4ccccc4)cc3)n(Cc3ccccc3)c2C1=O", "Potency": "inconclusive: 7.08 µM [inhibitor, full curve, poor fit]"}, {"smiles": "COc1cccc([S+](=O)([O-])N2CCC3(CC2)C(=O)NN=C3c2cccnc2)c1", "Potency": "inconclusive: 79.4 µM [inhibitor, partial curve]"}, {"smiles": "COC(=O)c1ccc2nc(C[C@@H]3C[C@@H](C(C)C)[C@H](CNC4CCCCC4)C=C3C)[nH]c2c1", "Potency": "inconclusive: 17.8 µM [inhibitor, full curve, poor fit]"}, {"smiles": "Cc1noc(C)c1-c1cc2cc(CN(C)C)oc2c(NCc2cccc(F)c2)n1", "Potency": "inconclusive: 56.2 µM [inhibitor, partial curve, poor fit]"}, {"smiles": "CC(C)CNC(=O)c1nc2sccn2c1-c1ccncc1", "outcome": "inactive [at 172 µM]"}, {"smiles": "O=C(NCC1CCCCC1)c1nc2sccn2c1-c1ccncc1", "Potency": "inconclusive: 44.7 µM [inhibitor, partial curve, poor fit]"}, {"smiles": "COc1ccccc1CN1C[C@@H]2C(=O)N(Cc3ccc4c(c3)OCO4)C(=O)[C@@H]2C1", "activity change, negative = cytotoxicity": "inactive: -3.55%"}, {"smiles": "COCCNC(=O)c1nc2sccn2c1-c1cccc(C#N)c1", "activity change, negative = cytotoxicity": "inactive: 2.92% [at 172 µM]"}, {"smiles": "O=C1NC(=NC2CCCCC2)C2(CCCN(Cc3cccnc3)C2)N1c1cc(F)cc(F)c1", "note": "(centres undefined)", "activity change, negative = cytotoxicity": "inactive: -9.55%"}, {"smiles": "COCC1CN(C(C)=O)CC12CCN(Cc1ccc(Br)o1)CC2", "note": "(centres undefined)", "activity change, negative = cytotoxicity": "inactive: -11.2%"}, {"smiles": "COCCN1C(=O)CS(=O)(=O)C12CCN(C(=O)C1(c3ccc(OC)cc3)CC1)CC2", "activity change, negative = cytotoxicity": "inactive: -18%"}, {"smiles": "CN(Cc1ccccc1C(F)(F)F)C(=O)c1ccccc1F", "Potency": "inconclusive: 89.1 µM [inhibitor, partial curve, poor fit]"}, {"smiles": "Cc1nc2n(c1C(=O)N(C)c1ccccc1)CCC(Nc1ccc(F)cc1)C2", "note": "(centres undefined)", "Potency": "inconclusive: 112 µM [inhibitor, single point]"}, {"smiles": "CC(=O)NC1CCN(c2ccc3nnc(-c4ccccc4)n3n2)CC1", "activity change, negative = cytotoxicity": "inactive: -10.5% [at 172 µM]"}, {"smiles": "COc1ccc(Nc2ccnc(N3CCCC(C(=O)NCc4cccc(Cl)c4)C3)n2)cc1", "note": "(centres undefined)", "Potency": "inconclusive: 35.5 µM [inhibitor, full curve, poor fit]"}, {"smiles": "COc1cccc(CNC(=O)CCC2CCN(S(=O)(=O)c3ccc(C)cc3)CC2)c1", "Potency": "inconclusive: 100 µM [inhibitor, single point]"}, {"smiles": "Cc1cc(CNC(=O)c2cc(-c3ccc(CO)cc3)cc3c2OCCN3C)no1", "Potency": "inconclusive: 112 µM [inhibitor, partial curve, poor fit]"}, {"smiles": "Cc1cc2nc3n(c(=O)c2n1CC(=O)NC(C)CCc1ccccc1)CCCC3", "note": "(centres undefined)", "Potency": "inconclusive: 89.1 µM [inhibitor, single point]"}, {"smiles": "O=C(c1ccccc1)N1CCC2(C1)C(=O)N(Cc1ccccc1)c1ccccc12", "note": "(centres undefined)", "Potency": "inconclusive: 44.7 µM [inhibitor, partial curve, poor fit]"}, {"smiles": "COc1cccc([C@H]2CN(C(=O)c3ccc4cc[nH]c4c3)C[C@@H]2N)c1", "Potency": "inconclusive: 50.1 µM [inhibitor, partial curve, poor fit]"}, {"smiles": "COc1ccc(-c2ccc(C(=O)Nc3ccccc3F)cc2)nn1", "Potency": "inconclusive: 11.2 µM [inhibitor, full curve, poor fit]"}, {"smiles": "Cc1ccc(OCCC2CCN(C(=O)CCCC(=O)n3nc(C)c4ccccc43)C2)cc1", "note": "(centres undefined)", "Potency": "active: 39.8 µM"}, {"smiles": "CCCC1(CO)CCCN(Cc2nnc(-c3cccc(F)c3)o2)C1", "note": "(centres undefined)", "Potency": "inconclusive: 44.7 µM [inhibitor, partial curve]"}, {"smiles": "CCN(C)C(=O)CCc1c(C)nn(-c2cccc(C)c2)c1Oc1ccc(F)cc1F", "Potency": "inconclusive: 50.1 µM [inhibitor, partial curve, poor fit]"}, {"smiles": "O=C(CNC(=O)c1cccc(-c2ccsc2)c1)NCC1CC1", "Potency": "inconclusive: 126 µM [inhibitor, single point]"}, {"smiles": "CCOc1ccc(C(=O)Nc2ccc(-c3nnc4n3CCCC4)cc2)cc1", "Potency": "inconclusive: 89.1 µM [inhibitor, single point]"}, {"smiles": "CC1=C[C@@H](CNS(=O)(=O)c2ccc(F)cc2)[C@H](C(C)C)C[C@H]1CC(=O)NCCN(C)C", "Potency": "inconclusive: 79.4 µM [inhibitor, partial curve, poor fit]"}, {"smiles": "NC(=O)c1cccc(-c2cc3c(cn2)CN(CCc2ccccc2)CCN3)c1", "Potency": "inconclusive: 100 µM [inhibitor, partial curve, poor fit]"}, {"smiles": "COc1cccc([S+](=O)([O-])N2CCC3(CC2)NC(=O)c2ccccc2O3)c1", "Potency": "active: 39.8 µM"}, {"smiles": "Cn1c(C(=O)NCCN2CCCCC2)cc2c1CCN(Cc1cccc(F)c1)C2", "Potency": "inconclusive: 89.1 µM [inhibitor, single point]"}, {"smiles": "Cc1ccccc1CC(=O)N1CCCC(n2cc(-c3nc(-c4ccccc4)no3)nn2)C1", "note": "(centres undefined)", "Potency": "inconclusive: 50.1 µM [inhibitor, partial curve, poor fit]"}, {"smiles": "Cc1ccc(-c2cccc(CN3C4CCC3CN(C(=O)c3ccncc3)C4)c2)c(C)c1", "Potency": "inconclusive: 44.7 µM [inhibitor, partial curve, poor fit]"}, {"smiles": "COc1cccc(N2C(=O)NC(=NC3CCCCC3)C23CCN(C(=O)c2ccccc2F)CC3)c1", "Potency": "inconclusive: 79.4 µM [inhibitor, partial curve, poor fit]"}, {"smiles": "COc1cccc(C(=O)N2CCC(N3C[C@H](O)C[C@H]3C(=O)NCc3cc(F)cc(F)c3)CC2)c1", "activity change, negative = cytotoxicity": "inactive: -29.3%"}, {"smiles": "O=C(NCc1ccc(F)cc1)c1ccc2nnc(C3CCCC3)n2c1", "Potency": "inconclusive: 70.8 µM [inhibitor, partial curve]"}, {"smiles": "CCc1ccc(S(=O)(=O)c2nnn3c2nc(NCCOC)c2ccccc23)cc1", "Potency": "inconclusive: 79.4 µM [inhibitor, partial curve, poor fit]"}, {"smiles": "Cc1nn(C)cc1C(C)NC(=O)CN1CCCc2nc(-c3ccccc3)ncc2C1=O", "note": "(centres undefined)", "Potency": "inconclusive: 79.4 µM [inhibitor, partial curve, poor fit]"}]}]}
